Test results reported in the supplement of paper PMC3334620.
Over roughly 33,000 sequences, “E-score (-0.5 to 0.5)” has its median near -0.016; the highest 2% begin near 0.32. The list shows a part of the results.

Biological target: T1, Stp1 (UniProt B3LFK1)
T1 sequence: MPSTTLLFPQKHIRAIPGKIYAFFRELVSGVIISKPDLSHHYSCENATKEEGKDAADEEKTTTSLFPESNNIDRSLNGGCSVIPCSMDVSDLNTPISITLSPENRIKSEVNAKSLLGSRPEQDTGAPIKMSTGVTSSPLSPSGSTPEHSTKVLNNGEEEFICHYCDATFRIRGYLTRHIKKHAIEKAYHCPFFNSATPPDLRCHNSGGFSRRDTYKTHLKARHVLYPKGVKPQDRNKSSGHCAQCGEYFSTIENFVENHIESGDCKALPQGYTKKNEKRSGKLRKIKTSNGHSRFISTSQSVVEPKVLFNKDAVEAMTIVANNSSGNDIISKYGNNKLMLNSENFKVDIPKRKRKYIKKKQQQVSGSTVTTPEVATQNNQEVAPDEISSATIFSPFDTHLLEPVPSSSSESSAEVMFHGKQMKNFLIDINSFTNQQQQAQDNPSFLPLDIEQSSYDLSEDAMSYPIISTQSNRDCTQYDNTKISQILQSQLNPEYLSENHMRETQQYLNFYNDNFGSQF
Test: PBM E-score (8-mer binding enrichment) (E-score (-0.5 to 0.5)); higher = stronger / more preferred TF binding; most listed sequences are background and not binding sites
Settings: protein concentration: 200 nM; construct: GST-full length
How it was run: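 PURExpress in vitro transcription/translation supplied GST-tagged yeast transcription factors, either full-length or DNA-binding domain. Applied at about 100-200 nM to universal all-10-mer Agilent arrays double-stranded by primer extension, the bound protein was detected with fluorescent anti-GST. E-scores, modified Wilcoxon-Mann-Whitney statistics, were given by the Universal PBM Analysis Suite to ungapped eight-base words pooled with their reverse complements after masliner normalisation.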

| Sequence | PBM E-score |
| --- | --- |
| GTCAAATA | 0.0762 |
| GCGGCTTA | 0.234 |
| CTTATATA | 0.26 |
| CGCACTTC | -0.0865 |
| AAATTACA | 0.0556 |
| CCTCGTTA | 0.0299 |
| CTATTTGC | -0.0276 |
| CAACTAGA | 0.0664 |
| AAGATATC | 0.0695 |
| GAGTAGGA | -0.242 |
| CTCCAAAA | -0.0218 |
| CTTACCTA | -0.166 |
| GACTCGAC | -0.0794 |
| CAAGCACC | -0.194 |
| AGTGCGCC | 0.297 |
| TCGATTAA | 0.191 |
| AACCCCTT | -0.257 |
| CGGCTATA | 0.246 |
| CTTTCAGC | 0.0149 |
| AGTTTCTA | 0.0128 |
| GCCGAGAA | 0.173 |
| GGTCTAAC | -0.0214 |
| CTAGCGCC | 0.16 |
| CATGGAGG | -0.166 |
| ACCACACG | 0.0913 |

| Sequence | PBM E-score |
| --- | --- |
| GCCTGGTA | -0.227 |
| GTAGAGAC | -0.243 |
| AACCAACT | -0.0274 |
| GCTGTTAC | 0.0627 |
| AAGTGTGC | 0.122 |
| CACTACCA | 0.0268 |
| CCTTTTGA | 0.112 |
| CAGCGTGG | 0.0374 |
| ACGCATCC | -0.151 |
| ACATAACC | -0.0579 |
| ATTTGGTC | 0.135 |
| GCCAGTCA | -0.217 |
| ACTCAGTC | -0.21 |
| CGATGACG | -0.00902 |
| GCAAGAGC | 0.0505 |
| CACATCCG | 0.0228 |
| GAATCCCC | -0.312 |
| CGGTTAAG | -0.0804 |
| AAGGACCT | -0.0559 |
| AGTGAATC | -0.132 |
| CCGATCTC | -0.112 |
| CGGTACAG | -0.0614 |
| CTCTCGAC | -0.159 |
| GCGATTCA | -0.0665 |
| AGCTGATC | 0.0485 |

| Sequence | PBM E-score |
| --- | --- |
| CAGTTACA | 0.149 |
| AAAACATG | -0.00948 |
| ACGCTCAG | -0.162 |
| GCAGGGCA | 0.23 |
| AGCATAAT | 0.119 |
| GCCCTCTA | -0.0132 |
| ATGACTAG | -0.162 |
| ATCCGGCA | -0.0958 |
| AGGAGCGA | -0.105 |
| ATTGGTCA | 0.055 |
| AATTAGAC | 0.00502 |
| CACTGTGA | 0.0499 |
| CTCTTGAA | 0.106 |
| AGTAGTAA | 0.0162 |
| CGACGGGA | 0.0948 |
| AGGGACCG | -0.252 |
| AGATATCG | -0.0236 |
| CAACGATC | -0.133 |
| TCAACGGA | -0.112 |
| TAGTGGCA | 0.00013 |
| AAAGGCAG | 0.172 |
| AGTCGAGA | -0.098 |
| TACGCAAA | -0.0339 |
| ATAGAACG | 0.259 |
| ATCATCGA | -0.0598 |

| Sequence | PBM E-score |
| --- | --- |
| CATGCCGC | 0.427 |
| CACGATAA | 0.126 |
| CGTTCATA | 0.156 |
| CAACCTGA | -0.149 |
| TCCCTAGA | 0.0849 |
| GATCGCGC | 0.206 |
| GGTCGGCA | 0.00959 |
| ACATCTTC | 0.0131 |
| AAGAGGCT | 0.0613 |
| CGAGTGCC | 0.255 |
| ATTTATCG | 0.2 |
| GGAGCTCC | -0.416 |
| CCTGGGCG | 0.0498 |
| AACAAGGA | 0.205 |
| ACGGAAAC | 0.0046 |
| CATATACG | 0.17 |
| ACCTGGCC | -0.0748 |
| GAGTTTGA | -0.018 |
| ACCGTTAA | -0.00718 |
| TGAAATCA | 0.148 |
| CAGAAAGA | 0.0676 |
| CACATTTA | -0.013 |
| CCGGGTCA | -0.202 |
| CCTAGCTA | -0.229 |
| GCATACTA | 0.0331 |

| Sequence | PBM E-score |
| --- | --- |
| CCTACCAG | -0.315 |
| GAACCCCA | -0.224 |
| CGACTAAC | -0.0568 |
| CACGTAGA | -0.0113 |
| AGGTTGTG | -0.0649 |
| ATGGCCGC | 0.216 |
| CGTTTGGC | 0.0114 |
| ATACAACC | 0.205 |
| ACCGATGA | -0.096 |
| ACTTGAAA | 0.0963 |
| CCCATTCA | -0.0474 |
| GGACCATA | -0.0836 |
| ATGACCAC | -0.0753 |
| GATTCAAC | 0.147 |
| GTGCGGAA | 0.132 |
| AATTCCGC | 0.103 |
| AAAAGCAT | -0.0178 |
| CACAGATA | -0.0503 |
| ACGCATTC | -0.106 |
| ACTTTAGA | 0.011 |
| AAACACCG | 0.139 |
| ACGATAGC | -0.0624 |
| AGCGACGC | -0.0144 |
| ACTTCACG | -0.149 |
| GGGGCTTA | -0.356 |

| Sequence | PBM E-score |
| --- | --- |
| AGGGACAC | 0.131 |
| CAGTCTGC | -0.183 |
| CCGTGGCA | 0.357 |
| CGCTTAGC | -0.0622 |
| ACGAATAT | 0.079 |
| GCGGCTCC | 0.315 |
| AGCACCCG | -0.144 |
| GTACGACA | -0.00808 |
| GGTTATTA | 0.16 |
| ATCACCCA | -0.178 |
| GGAATCCC | -0.216 |
| ACCTATTG | -0.156 |
| GACAGCGA | -0.189 |
| CTTAATTC | 0.143 |
| GGATCACC | -0.154 |
| CTCCGTCC | -0.2 |
| AGCACCAT | -0.273 |
| ATATAGCG | 0.0103 |
| CAACGTGC | 0.145 |
| CGTGCAAG | 0.114 |
| CATATCCG | 0.0484 |
| GAATCCAC | 0.0318 |
| AGGTAAAC | 0.156 |
| AGCTCTAT | -0.215 |
| CAGAAACC | 0.0261 |

| Sequence | PBM E-score |
| --- | --- |
| CGTTCGGA | 0.0237 |
| CACAGGGA | -0.0963 |
| AACGCCCA | 0.122 |
| CGCCTTAG | 0.234 |
| CTCCACTC | -0.277 |
| AGCTGTCA | -0.1 |
| AACGGCTC | 0.407 |
| ACTGTGGC | -0.143 |
| ACGCGTGA | 0.15 |
| CCTAAAAG | -0.21 |
| CAGGAAAG | -0.122 |
| AACGTACA | 0.0458 |
| GGTAACTA | 0.128 |
| CGGCCGGC | 0.235 |
| CATTCACC | -0.00482 |
| CGTGCGTC | 0.225 |
| CAAGGCTG | -0.171 |
| GGCAGTCA | 0.0148 |
| ATATCGCG | 0.127 |
| AACGGAGA | 0.0583 |
| CACAGGCA | 0.0162 |
| GAGGAGCC | 0.0169 |
